Screen size: about 310,000 compounds; about 14,000 (4.5%) showed an effect of 50% or more. Effects have a minus sign here. This is one part of the list.
Each molecule was assayed against human ether-à-go-go-related gene (hERG) potassium channel (human, UniProt Q12809) (assay: primary screen, population patch clamp on CHO cells stably expressing hERG).
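Also: peak tail current of the secondary pulse compared with the same well before compound.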

Sequence of human ether-à-go-go-related gene (hERG) potassium channel (Q12809 whole entry, looked up): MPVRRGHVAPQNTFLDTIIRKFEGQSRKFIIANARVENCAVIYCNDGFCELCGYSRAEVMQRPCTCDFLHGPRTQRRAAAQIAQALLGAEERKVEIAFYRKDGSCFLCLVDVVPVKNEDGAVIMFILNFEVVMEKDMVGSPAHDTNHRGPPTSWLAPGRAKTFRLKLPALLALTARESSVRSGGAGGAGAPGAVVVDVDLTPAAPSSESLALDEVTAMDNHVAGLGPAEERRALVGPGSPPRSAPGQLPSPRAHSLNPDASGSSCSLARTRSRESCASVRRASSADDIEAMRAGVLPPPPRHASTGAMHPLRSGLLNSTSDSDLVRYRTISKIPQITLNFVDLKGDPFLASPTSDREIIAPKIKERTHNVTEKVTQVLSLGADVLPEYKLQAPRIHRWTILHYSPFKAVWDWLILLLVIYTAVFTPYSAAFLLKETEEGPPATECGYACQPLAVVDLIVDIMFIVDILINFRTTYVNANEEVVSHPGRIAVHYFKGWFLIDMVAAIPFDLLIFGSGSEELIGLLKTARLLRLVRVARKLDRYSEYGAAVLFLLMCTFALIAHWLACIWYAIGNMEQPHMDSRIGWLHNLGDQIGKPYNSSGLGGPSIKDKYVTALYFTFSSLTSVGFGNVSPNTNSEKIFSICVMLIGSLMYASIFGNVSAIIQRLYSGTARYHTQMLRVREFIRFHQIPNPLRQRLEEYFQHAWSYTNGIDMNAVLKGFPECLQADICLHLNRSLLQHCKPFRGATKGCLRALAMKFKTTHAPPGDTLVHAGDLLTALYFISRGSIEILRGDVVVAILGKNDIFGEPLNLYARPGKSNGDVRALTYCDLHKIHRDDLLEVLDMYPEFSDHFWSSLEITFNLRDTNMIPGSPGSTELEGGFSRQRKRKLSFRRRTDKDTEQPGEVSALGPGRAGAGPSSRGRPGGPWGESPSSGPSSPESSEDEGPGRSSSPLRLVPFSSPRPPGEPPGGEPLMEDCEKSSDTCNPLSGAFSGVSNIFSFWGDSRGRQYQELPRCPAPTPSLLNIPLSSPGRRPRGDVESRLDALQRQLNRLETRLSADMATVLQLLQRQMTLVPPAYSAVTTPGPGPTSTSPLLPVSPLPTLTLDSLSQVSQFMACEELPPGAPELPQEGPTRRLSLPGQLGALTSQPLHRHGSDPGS

Row | SMILES | hERG current change (%, negative = inhibition) at 10uM
1 | COC(=O)CC(=O)Cc1nc(N)nc(Nc2ccc(C)c(C)c2)n1 | -9.22%
2 | COc1ccc(CC(=O)Nc2cc(Cl)ccc2O)cc1 | -1.45%
3 | CSc1cccc(N2CC(C(=O)Nc3cccc(S(=O)(=O)N4CCCC4)c3)CC2=O)c1 (stereo not drawn) | 3.7%
4 | CCC(=O)N1N=C(c2ccccc2)CC1c1ccccc1 (stereo not drawn) | 2.71%
5 | COCC(=O)Nc1ccc(S(=O)(=O)NCC2CCCO2)cc1 (stereo not drawn) | 14.5%
6 | CCN(CC)CCNC(=O)c1ccc(NC(=O)c2ccc(C(=O)c3ccccc3)cc2)cc1 | -43.7%
7 | CCc1c(O)nc(SCC(=O)Nc2ccc(C)cc2)n(C2CCCCC2)c1=O | -3.5%
8 | CO/N=C(\Cn1ncc(N2CCCC2)c(Cl)c1=O)c1ccc(Cl)cc1 | -64%
9 | CC1CCC(N(C)C2CCN(C)CC2)CC1 (stereo not drawn) | 11.3%
10 | Cc1nn(-c2ccccc2)c(C)c1-c1nnc(C(F)(F)F)o1 | 2.32%
11 | COc1ccc(N(CC(=O)Nc2cc(Cl)ccc2C)S(=O)(=O)c2c(C)noc2C)cc1 | 16.7%
12 | COc1ccc(OC)c(NC(=O)Cc2coc3cc(C)cc(C)c23)c1 | 1.9%
13 | CCCn1c(NC(=O)CN2C(=O)NC3(CCCC3)C2=O)nc2ccccc21 | 13.3%
14 | CC1=C(C(=O)Nc2ccccc2)C(c2ccccc2[N+](=O)[O-])NC(=O)N1 (stereo not drawn) | 8.81%
15 | C[C@H](NC(=O)c1nc[nH]c1C(=O)NCC(=O)OC(C)(C)C)C(=O)OC(C)(C)C | 8.56%
16 | COc1ccc(-n2c(SCC(=O)NCc3ccco3)nc3c([nH]c4ccccc43)c2=O)cc1 | 16.2%
17 | CC(=O)c1ccc(N2C(=O)[C@@H]3C(C(=O)CCN4C(=O)c5ccccc5C4=O)=NN[C@@H]3C2=O)cc1 | -37.2%
18 | Cc1ccccc1OCC(=O)Nc1ccccc1N1CCCCC1 | 19.9%
19 | CCc1cc(C(=O)N2CCCC(C(=O)c3ccc(OC)c(F)c3)C2)n(C)n1 (stereo not drawn) | -34.6%
20 | O=C(O)c1ccc2c(=O)n3c(nc2c1)/C(=C/c1ccccc1Br)CC3 | 4.66%
21 | Cc1ccc(-c2c[n+](CC(=O)Nc3cc(=O)n(C)c(=O)n3C)c3n2CCC3)cc1.[Cl-] | -0.179%
22 | Cc1ccc(-n2c(C(C)C)nc3oc4ccccc4c(=O)c3c2=O)cc1 | 8.55%
23 | C=C(C)CNC(=S)NNC(=O)c1cc(C)oc1C | 2.46%
24 | O=C(Nc1c2c(nc3ccccc13)CCCC2)c1ccccc1Cl | 17.2%
25 | CC(Sc1nnc(-c2cccs2)n1C1CC1)C(=O)NCC1CCCO1 (stereo not drawn) | -12.1%
26 | O=C(CN(C(=O)CCC(=O)Nc1nccs1)c1ccc(F)cc1)NCc1ccccc1 | 29.1%
27 | CCCS(=O)(=O)c1nc(S(=O)(=O)c2ccc(C)cc2)c(N2CC(C)OC(C)C2)s1 (stereo not drawn) | -3.25%

Row | SMILES | hERG current change (%, negative = inhibition) at 10uM
28 | COC(=O)c1ccccc1S(=O)(=O)N1CCC(C(=O)N2CCC2)CC1 | 3.96%
29 | COc1ccccc1NC(=O)NCCC1=CCCCC1 | -10.8%
30 | COc1nsnc1N1CCOCC1 | 9.24%
31 | Cc1cc(C)c(O)c(NC(=S)NC(=O)Cc2ccccc2)c1 | 15.7%
32 | C#CCOCCOCCOCCNc1nc(N2CCN(C(=O)[C@H](CCC(=O)O)n3cc(C(N)Cc4ccc(O)cc4)nn3)CC2)nc(N2CCN(C(=O)[C@H](CCC(=O)O)n3cc(C(N)[C@H](C)CC)nn3)CC2)n1.Cl (stereo partly drawn) | 19.4%
33 | Cc1nn(-c2nnc(NC3CCCCC3)nn2)c(C)c1Br | 10.8%
34 | O=C1C(=O)N(CCS(=O)(=O)c2ccccc2)c2ccc(Cl)cc21 | -5.96%
35 | C/C(CC(=O)Nc1ccccn1)=N\NC(=O)c1cnccn1 | -4.11%
36 | O=C(NCc1ccccc1CN1CCCC1)c1ccc(Cl)c(N2CCCC2=O)c1 | -3.14%
37 | O=C(O)CCn1cc(-c2ccc(Cl)cc2)nc1-c1ccc(Cl)nc1 | 12.5%
38 | CN(C)S(=O)(=O)c1cccc(NC(=O)NCCCl)c1 | 0.815%
39 | O=C(CCC(=O)N1CCN(C(=O)c2ccco2)CC1)c1ccc(F)cc1 | -66.7%
40 | CC1=C(C(=O)N2CCOCC2)C(c2ccc(Br)cc2)NC(=S)N1c1ccccc1 (stereo not drawn) | 1.32%
41 | COCCn1c(SCC(=O)NC2CCCC2)nnc1-c1ccncc1 | -3.49%
42 | Cc1nn(-c2ccc(Cl)cc2)c2sc(C(=O)c3c(N)n(C)c(=O)n(C)c3=O)cc12 | -1.02%
43 | COCCCn1c(=S)[nH]c2sc3c(c2c1=O)CCCS3 | 24.3%
44 | COc1ccc(NC(=O)CN(C)CC(=O)Nc2ccc(N3CCOCC3)cc2)c([N+](=O)[O-])c1 | -26.2%
45 | Cc1cnc(C)c(N2CCC(C(=O)NCc3ccco3)CC2)n1 | -6.65%
46 | Cc1cc(=O)oc2cc(OCc3nnc(-c4ccccc4Br)o3)ccc12 | 1.65%
47 | CC1CN(C(=O)c2c([N+](=O)[O-])cnn2C)CC(C)O1 (stereo not drawn) | 0.716%
48 | O=C(NC(C(Cl)Cl)N1CCOCC1)c1ccccc1 (stereo not drawn) | 13%
49 | CN(Cc1ccccc1)C(=O)COC(=O)c1cc(NS(=O)(=O)c2cccs2)ccc1O | -0.596%
50 | COc1cccc(N2CCN(S(=O)(=O)c3ccc4c(c3)oc(=O)n4C)CC2)c1 | 26%
51 | CN(C)CCN(C(=O)c1ccc(S(=O)(=O)N2CCc3ccccc32)cc1)c1nc2ccc(F)cc2s1.Cl | -12.7%
52 | O=C(CSc1nnnn1Cc1ccccc1)NC1CCCCC1 | -2.23%
53 | COc1cccc(NC(=O)C(C)OC(=O)c2n[nH]c3ccccc23)c1 (stereo not drawn) | -6.49%
54 | Cc1nn(C)c(C)c1NC(=O)CSc1nnc(C)n1-c1ccccc1 | -0.523%

From article PMC4336329 (PLoS ONE, 2015)
